Source: the RNAGym collection of RNA variant scans (doi:10.7554/elife.90254)
Read counts are not given, so values of variants with three or more changes are uncertain.

B1: LINE1-mini (parent)
chain: GGCAGAGCUCAACACAGCGUGGCAAAGUGGCUGUGGCUAGACUGCC

Variants of: B1
Assay: self-cleavage, relative activity (ratio to wild type); higher = more cleavage; in vitro, sequencing; the parent is a self-cleaving ribozyme
Work on A16C G21C A25C A26C G30A C45G yielded a self-cleavage of 0.03. G1A A12U G22A gave a self-cleavage of 1.16. For U9C G17U G29A C37U, the self-cleavage was 0.02. In the case of A16G C31A G36A, the self-cleavage is reported as 0.03. With A11U C18A A24G A41C the self-cleavage was 0.03. G22U C31A C37A gave a self-cleavage of 0.1. C8G C13A G17U G27U G29U C31A G33U G40A gave a self-cleavage of 0.01. For C3A A14U C15U G21U A25G G29U G35U C42A, the self-cleavage was 0.06. U9A C23A C31A A39G C46U gave a self-cleavage of 0.01. C8A A11C A26C G33A U38A gave a self-cleavage of 0.01. A14C U20G A39U C45G C46G showed a self-cleavage of 0. C15U A16U G30U C46G gave a self-cleavage of 0.06. A6C A12C C18G G33C G35A showed a self-cleavage of 0. G19C U20A C46A showed a self-cleavage of 1.41. With C10A G17A G29U A39U the self-cleavage was 0. With A14C C15A U32G C42U the self-cleavage was 0.02. In the case of A4G G33A U38C, the self-cleavage is reported as 0.29. Variant C3U U20A C42A has a self-cleavage of 0.08. Work on C8A A12G G27C G40C yielded a self-cleavage of 0.02. Work on C10A A41C C45A yielded a self-cleavage of 0.02. With G2A G27A G33U the self-cleavage was 0.18. C18U A25U G29U showed a self-cleavage of 0.35. G2A G19C G40A showed a self-cleavage of 0.02. In the case of G19A G30A U34G A39C, the self-cleavage is reported as 0.02. Variant C10A G17U C31A has a self-cleavage of 0.07. A14U C18G A25U G33U showed a self-cleavage of 0.17. Work on C8G C37G G40A C42G G44U yielded a self-cleavage of 0.09. In the case of G19U U20A C23U G40U C45A, the self-cleavage is reported as 0.01. In the case of U20C A26G G30U G35A C46U, the self-cleavage is reported as 0.02. For C3G U43A G44A, the self-cleavage was 0.04. Work on G1A G19A C31G C37A yielded a self-cleavage of 0.13. In the case of C10A C18A G19A G27U C42U, the self-cleavage is reported as 0.02. Work on C8G C23A A25C C37A G44C yielded a self-cleavage of 0.01. For G1C A16G C18U A41U, the self-cleavage was 0.1. Work on U20C G33C C45U yielded a self-cleavage of 0.01. In the case of A6U G17C U28C C37A, the self-cleavage is reported as 0.02. For C10U A12U A41C C46A, the self-cleavage was 0.01. For G1U G7C A12U C13U A26C, the self-cleavage was 0.42. Variant U20C G33C C42A C46U has a self-cleavage of 0.02. In the case of U9G C15A A26U C37U G44U, the self-cleavage is reported as 0.09. Variant A4C C23U A25U A26C G40A has a self-cleavage of 0.08. Variant G5U G21A A24U U32C G36U has a self-cleavage of 0.04. C8G C10U G17U U20A G22U gave a self-cleavage of 0.03. In the case of A12G U28C G35U, the self-cleavage is reported as 0.02. With G1U C13A A14G G29C the self-cleavage was 0.02. With G1U A12G G19A A39C G40U the self-cleavage was 0. In the case of G5U C10U C15A G21C A25C G36A C37U, the self-cleavage is reported as 0.02. For C15A U20A U38C, the self-cleavage was 0.03. G2C G33U C37A showed a self-cleavage of 0.03. G2A C3U U32G gave a self-cleavage of 0.26. In the case of C3U C8G U34G C45G, the self-cleavage is reported as 0.08. G7C A14U G27U G40U showed a self-cleavage of 0.11. C3U A12C G17A C18A gave a self-cleavage of 0.02. Work on C10G A14G A26U G36C A39C yielded a self-cleavage of 0.01. C3A C8U G27A showed a self-cleavage of 0.31. Work on G7A C10U C15A G35U A39C yielded a self-cleavage of 0.09. Variant C10G C23U G27C G29C has a self-cleavage of 0.03. G17U U38G G40A gave a self-cleavage of 0. With C3U C10A A24G G36C the self-cleavage was 0. With G5A A12C G17U G19C the self-cleavage was 0.03. Variant C23A A24G G27U C37A has a self-cleavage of 0.01. In the case of G7C A25U A41C, the self-cleavage is reported as 0.07. A6U G30C A39U C45A showed a self-cleavage of 0.46. Variant C23G A26G G29C has a self-cleavage of 0.08. C3A G5A C10G G17U G27C gave a self-cleavage of 0.03. Work on C18A U20G G29U G35A U38C C45U yielded a self-cleavage of 0.01. Work on C13A C31G G35A yielded a self-cleavage of 0.03. U9C C15G A25U G27A G30U A39G G44C gave a self-cleavage of 0.03. Work on G7A A11G G17U U20C A25C C31U G33U yielded a self-cleavage of 0. For C3A A4U G5U U9C G21A, the self-cleavage was 0.04. Variant G5A U38A A41G has a self-cleavage of 0.28. In the case of C3U A6G U9G G30U G40U, the self-cleavage is reported as 0.03. C8G C31A A39C G40U showed a self-cleavage of 0.03. For A11U G22U A25U, the self-cleavage was 0.15. Variant A11C G27U G30C has a self-cleavage of 0.09. Variant G2C C3A A24C U34C C37A U43C has a self-cleavage of 0.01. For G1C A14G A26G, the self-cleavage was 0.04. With C10U G22C G44U the self-cleavage was 0.11. G7A G29U G44U showed a self-cleavage of 0.16. Variant A16C G17C U32G G44A has a self-cleavage of 0.06. With G5A C10A G27C U34C A41G the self-cleavage was 0.01. Variant A4U C18A G27A has a self-cleavage of 0.16. In the case of G1A G5C C8G C23U G29A, the self-cleavage is reported as 0.26. G1C C10U C15G gave a self-cleavage of 0.01. Work on A6U A12C U28A C31U G33U yielded a self-cleavage of 0.09. A11C C31G G33A A39G gave a self-cleavage of 0. C3A A12U U38G G40U showed a self-cleavage of 0.07. In the case of A11C A25U G35U C42U, the self-cleavage is reported as 0.01. In the case of C23A C31G G40A, the self-cleavage is reported as 0.04. In the case of G1C C3G A16C, the self-cleavage is reported as 0.22. Work on A4G G21U G29U U43A yielded a self-cleavage of 0.09. With G1U U9G A14U G17A C31A G40U C45G the self-cleavage was 0.03. U9A A12G U28C showed a self-cleavage of 0.01. With C15G G27U G36C the self-cleavage was 0.16. For G7C A12G C23U A25G C31A G36A, the self-cleavage was 0.01. Work on G7U A14G G30A yielded a self-cleavage of 0.03. C3U A4U C10A U20A A26C gave a self-cleavage of 0.06. For C10A A12U U43C, the self-cleavage was 0.01. Work on C13U C18A G33U C45A yielded a self-cleavage of 0.01. G2C G27A G30U A39C C46U gave a self-cleavage of 0.03. With G7C C31G G36U C42A the self-cleavage was 0.04. With C3A C8A A12U G19A U20C the self-cleavage was 0.22. A14G G17A C23G U32A gave a self-cleavage of 0.03. G5C A6C C8U C15G showed a self-cleavage of 0.11. G1U G7A G33U C42U gave a self-cleavage of 0.2. G21A C23A G44A gave a self-cleavage of 0.27. Work on G1U U9G A11G G40A A41U yielded a self-cleavage of 0.02. Work on C3U U9C C13U G19A C23U yielded a self-cleavage of 0.02. In the case of C23A G29A C42U, the self-cleavage is reported as 0.74. With C8G G19A U20G G35C A41C the self-cleavage was 0.1. G2A C15A G22U A25U U28G A41C gave a self-cleavage of 0.04. In the case of G2C C10A C18A, the self-cleavage is reported as 0.01. With G1U C8A U9C U20G U32A G35C C37G G40U the self-cleavage was 0.01. G2A A14G C31G G35C G44A gave a self-cleavage of 0.08. A11C U20A G22C gave a self-cleavage of 0.01. With A16G G22C U28C the self-cleavage was 0.07. Work on G1U G21U G30A yielded a self-cleavage of 0.57. With U9G G21A A24C U38C the self-cleavage was 0.12. C3G A14U C18U C42U gave a self-cleavage of 0.07. For C8G A12U G21U G22U G29C, the self-cleavage was 0.03. For C13G G17A C18A G36A, the self-cleavage was 0.05. In the case of C3G C8G A26G U32G G33U, the self-cleavage is reported as 0.01. A6U C15U G19C U34C showed a self-cleavage of 0.15. C8A C45U C46A showed a self-cleavage of 0.52. In the case of G7A A25U G35U, the self-cleavage is reported as 0.15. A6U C10U A12C A25U G27U G33U U34C showed a self-cleavage of 0.02. Work on C18G G33U G40U yielded a self-cleavage of 0.07. G7A G21U U28C C45U gave a self-cleavage of 0.12. A4G C8G C31U G35A C46U showed a self-cleavage of 0.01. G1A U9A A11C C23U A25C G29C showed a self-cleavage of 0. G2C G7A A14G U28C G36U A41G showed a self-cleavage of 0.58. G5A C18A A24U G29A G30A C37A U43C C46U gave a self-cleavage of 0.02. Variant G5A U9G A14U G19A U28A G29A U34C U38C has a self-cleavage of 0.02. In the case of G7C C10U A11G C37A C45G, the self-cleavage is reported as 0. In the case of C3A C15U C18A U20A, the self-cleavage is reported as 0.11. A16C C18A C42U showed a self-cleavage of 0.04. With C10A G17U A24U G36U the self-cleavage was 0.02. C3G U20G A26U G30C A39G C42G showed a self-cleavage of 0.14. C8G G30C G35C gave a self-cleavage of 0.08. A6U C8A C10G A14G C31U G40U gave a self-cleavage of 0.01. Variant U20C A26G G29U G30C U38C has a self-cleavage of 0.28. For G17U G33A G35C G40U G44A, the self-cleavage was 0.02. In the case of C3G G44A C46A, the self-cleavage is reported as 0.24. In the case of U20C A26C G30C C37G U43C, the self-cleavage is reported as 0.02. C15G A25U U32G gave a self-cleavage of 0.02. Work on A4G G17U G30A A39G C42A yielded a self-cleavage of 0.03. In the case of C3U C15A A25C G44A, the self-cleavage is reported as 0.02. G2C A6U C8A U9C G40A showed a self-cleavage of 0.07. Variant G22A C45A C46U has a self-cleavage of 0.32. In the case of A24U G29C G30C, the self-cleavage is reported as 0.14. Work on G7A G17C G27U G35U C45U yielded a self-cleavage of 0.1. Work on C15A C23A G35C yielded a self-cleavage of 0.05. G2A A11U C45A gave a self-cleavage of 0.04. In the case of A14C G21A A24U, the self-cleavage is reported as 0.03. With G5U G36U U43A the self-cleavage was 0.04. For C13A G19A C23G C37G, the self-cleavage was 0.01. Variant U34C G35C C45A has a self-cleavage of 0.01. Work on C3U A24G G29C yielded a self-cleavage of 0.17. C3U G7U C42A gave a self-cleavage of 0.1. A6U U34G G40U showed a self-cleavage of 0.03. For G2A C8G C10U, the self-cleavage was 0.1. Work on C10A C31G G33U G40A C45G yielded a self-cleavage of 0.02. C8U A26G G36A showed a self-cleavage of 0.05. For U9A G29U C37A C46G, the self-cleavage was 0.22. A4C G19U G33U U34C showed a self-cleavage of 0.05. In the case of G2A G29C C37G, the self-cleavage is reported as 0.02. In the case of G2A G30U C45A C46G, the self-cleavage is reported as 0.69.
